Source: the antibiotic and cytotoxicity screens of Wong et al. (2023)
Some of the results follow.

test system: HepG2; experiment: cytotoxicity call (relative viability < 0.9); details: 10 µM

Question: C[C@@H]1CCCCO[C@@H](CN(C)S(=O)(=O)c2ccc(F)cc2)[C@@H](C)CN([C@H](C)CO)C(=O)c2cc(NC(=O)c3ccccc3)ccc2O1 was tested. Which cytotoxicity call did it give?
Answer: Its cytotoxicity call is “inactive”.

Question: How did the cytotoxicity call turn out when C[C@H](CO)N1C[C@H](C)[C@H](CN(C)C(=O)Nc2ccccc2)Oc2ncc(-c3cccc(C(F)(F)F)c3)cc2C1=O was run?
Answer: The cytotoxicity call was “inactive”.

Question: For C[C@H]1CN([C@@H](C)CO)C(=O)c2cc(NC(=O)NC3CCCCC3)ccc2O[C@H]1CN(C)Cc1ccc(Oc2ccccc2)cc1, which cytotoxicity call is on record?
Answer: Its cytotoxicity call is “inactive”.

Question: CCOC(=O)Nc1c[n+](N2CCOCC2)no1 was tested. Which cytotoxicity call did it give?
Answer: Its cytotoxicity call is “inactive”.

Question: C[C@H]1CN([C@@H](C)CO)C(=O)c2ccccc2-c2ccccc2CO[C@H]1CN(C)C(=O)Nc1cccc(F)c1 was tested. Which cytotoxicity call did it give?
Answer: The cytotoxicity call was “inactive”.

Question: How did the cytotoxicity call turn out when CCOC(=O)c1nnn(-c2nonc2N)c1CN1CCSCC1 was run?
Answer: Its cytotoxicity call is “inactive”.

Question: Which cytotoxicity call does the source give for CC(C)NC(=O)N(C)C[C@H]1Oc2ccc(NC(=O)Cc3ccccc3)cc2C(=O)N([C@@H](C)CO)C[C@H]1C here?
Answer: Its cytotoxicity call is “inactive”.

Question: COc1ccc([Si](C)(C)[C@@H]2[C@@H](CCn3cc([C@H](O)c4ccccc4)nn3)O[C@]3(C(=O)N(Cc4ccc(N5CCOC5=O)cc4)c4ccccc43)[C@H]2C)cc1 was tested. Which cytotoxicity call did it give?
Answer: Its cytotoxicity call is “inactive”.

Question: With C[C@H]1CCCCO[C@H](CN(C)S(=O)(=O)c2ccccc2)[C@@H](C)CN([C@@H](C)CO)C(=O)c2cc(NS(=O)(=O)c3cn(C)cn3)ccc2O1 as the compound, how does the cytotoxicity call read?
Answer: The cytotoxicity call was “inactive”.

Question: Which cytotoxicity call does the source give for CCCNC(=O)Cc1nnc[nH]1 here?
Answer: The cytotoxicity call was “inactive”.

Question: For C[C@H]1CN([C@@H](C)CO)C(=O)Cc2cc(NS(=O)(=O)c3cccs3)ccc2O[C@H]1CN(C)S(=O)(=O)c1cccs1, which cytotoxicity call is on record?
Answer: Its cytotoxicity call is “inactive”.

Question: Cc1noc(C)c1S(=O)(=O)Nc1ccc2c(c1)C(=O)N([C@H](C)CO)C[C@H](C)[C@@H](CN(C)C(=O)Nc1ccc(C(F)(F)F)cc1)OCCCC[C@@H](C)O2 was tested. Which cytotoxicity call did it give?
Answer: Its cytotoxicity call is “inactive”.
